Source: PubChem BioAssay (NCATS)
The list shows a part of the results. Further columns of the screen follow, without active or inactive calls. The note in brackets gives the kind of curve behind each potency; many fits are weak.
Tags give direction and shape of the fitted curve.

Test: qHTS drug screen for cell cycle checkpoint inhibitors in PARPi-resistant BRCA-mutant ovarian cancer cell lines. (AID 1963452)
Settings: PEO1/OlaR viability, CellTiter-Glo luminescence, 96 h; measured here: PEO1 parental viability
Summary of the method: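 PEO1, PEO4 and PEO1/OlaR ovarian cancer cells, 600 per well, exposed 96 h at 37C to a dilution series. Viability read by CellTiter-Glo luminescence, normalized to DMSO and empty wells; activity summarized as Z-AUC.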
With `CC(=O)C1CCC2C3CCC4=CC(=O)CCC4(C)C3CCC12C` (stereo unspecified) the AC50 was 12.3 µM [falling, partial curve]. In the case of `COc1ccc(Cl)c(Nc2nc3ccccc3nc2NS(=O)(=O)c2cccc(NC(=O)C(C)(C)N)c2)c1`, the AC50 was 27.5 µM [falling, single point]. For `CNC(=O)[C@@H](NC(=O)[C@H](CC(C)C)[C@H](O)C(=O)NO)C(C)(C)C`, the AC50 was 13.8 µM [falling, partial curve, poor fit]. In the case of `CCN(c1cc(C#CCN2CCOCC2)cc(C(=O)NCc2c(C)cc(C)[nH]c2=O)c1C)C1CCC(N(C)CCOC)CC1` (stereo unspecified), the AC50 was 0.0549 µM [rising, full curve, poor fit]. In the case of `COc1nc(-c2ccc3c(c2)OCO3)n(-c2ccc(NC(=O)CSc3ccccc3)cc2)n1`, the AC50 was 15.5 µM [falling, partial curve, poor fit]. For `CCCCC[C@H](O)/C=C/[C@H]1[C@H](O)CC(=O)[C@@H]1CCCCCCC(=O)O`, the AC50 was 0.692 µM [falling, partial curve, poor fit]. In the case of `Cc1cccc(CC(=O)N2CCc3c2ccc(-c2cn(C)c4ncnc(N)c24)c3F)n1`, the AC50 was 8.71 µM [falling, partial curve]. For `Cc1ccc(NC(=O)NCc2ccc3c(c2)CN(C2CCC(=O)NC2=O)C3=O)cc1Cl` (stereo unspecified), the AC50 was 0.0309 µM [falling, full curve]. With `CONC(=O)Nc1ccc(-c2sc3c(c2CN(C)Cc2ccccc2)c(=O)n(-c2ccccc2)c(=O)n3Cc2c(F)cccc2F)cc1` the AC50 was 13.8 µM [falling, partial curve, poor fit]. With `COC(=O)N[C@@H](C)CNc1nccc(-c2cn(C(C)C)nc2-c2cc(Cl)cc(NS(C)(=O)=O)c2F)n1` the AC50 was 17.4 µM [falling, partial curve, poor fit]. In the case of `Cc1ncc(Cl)cc1NCc1ccc(C(=O)NC(CC2CCCC2)C(=O)NC2CC2)s1` (stereo unspecified), the AC50 was 19.5 µM [rising, single point]. For `CC(C)c1noc(N2CCC(COc3ccc(-c4ccc(S(C)(=O)=O)cc4)nc3)CC2)n1`, the AC50 was 2.19 µM [falling, full curve]. In the case of `NC(=O)c1ccc2[nH]ccc2c1`, the AC50 was 27.5 µM [rising, single point]. In the case of `CCNC(=O)Nc1ccc(Oc2ncnc(N)c2/C=N/OC)cc1Cl`, the AC50 was 24.5 µM [falling, single point]. With `O=C(O)c1ccc(-c2c[nH]c3ncc(-c4ccccc4)cc23)cc1C1CCCC1` the AC50 was 0.0155 µM [falling, full curve, poor fit]. With `OC(c1ccc(-c2ccc(CN3CCN(Cc4ccncc4)CC3)cc2)c(F)c1)(C(F)(F)F)C(F)(F)F` the AC50 was 0.11 µM [falling, full curve, poor fit].
